Measurements: PubChem BioAssay AID493131 (Broad Institute, 2011)
Hit rate of the full screen: of about 340,000 compounds, about 3,300 (0.97%) were called active. This list was built around the results that the source calls inconclusive (neither active nor inactive); the mix of calls is not that of the screen.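 Rule for the calls: active = mean activation above about 17%, with every replicate also reaching it (limit read from the data, passing the limit was not always enough); inconclusive = only one of the two conditions met; inactive = the rest.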

Biological target: Protein FosB (Mus musculus) (UniProt P13346)
Assay: enhancers of mouse delta FosB DNA binding – biochemical, fluorescence polarization, TAMRA-CDK5 oligo, single point, primary screen (AID 493131);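 note: fluorescence polarization rise as delta FosB binds a TAMRA Cdk5 AP-1 oligo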
Settings: purified delta FosB, at 25 µM, stronger effect = higher value, percent of positive-control signal above neutral wells

UniProt P13346, sequence (P13346 whole entry, looked up): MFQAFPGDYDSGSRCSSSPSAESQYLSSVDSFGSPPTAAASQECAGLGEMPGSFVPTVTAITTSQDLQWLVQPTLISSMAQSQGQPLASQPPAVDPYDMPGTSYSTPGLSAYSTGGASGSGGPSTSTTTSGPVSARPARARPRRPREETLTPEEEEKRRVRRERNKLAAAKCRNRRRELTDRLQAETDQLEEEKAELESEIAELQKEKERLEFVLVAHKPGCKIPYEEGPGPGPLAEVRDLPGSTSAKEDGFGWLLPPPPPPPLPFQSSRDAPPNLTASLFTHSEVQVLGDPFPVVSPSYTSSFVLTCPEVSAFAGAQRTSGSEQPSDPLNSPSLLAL

Row | Compound | activation
1 | COc1cccc(NC(=O)Cn2c3ccc(F)cc3c3nc4n(c(=O)c32)CCCS4)c1 | inactive: 12.3%
2 | CCCCN1C(N)=NC[C@@H]1CC1CCCCC1 | inconclusive: 17.1%
3 | Cc1ccc(SCC(=O)OC(C)C(=O)Nc2ccc(S(N)(=O)=O)cc2)cc1C (configuration not stated) | inactive: 1.15%
4 | O=[N+]([O-])c1ccc(COc2cccc(CN3CCCCC3)c2)cc1 | inactive: -2.55%
5 | CCCCCCCCCCOC(=O)Cn1c(COc2cccc(C)c2)[n+](C)c2ccccc21 | inconclusive: 21.6%
6 | COc1cc(NC(=O)C2CC(c3ccccc3O)=NO2)c(OC)cc1Cl (configuration not stated) | inconclusive: 17.4%
7 | CN=c1scc(-c2ccccc2F)n1/N=C/c1ccc(O)c(O)c1O | inactive: -25.2%
8 | CC(CNC(=O)c1cc(Cl)ccc1[N+](=O)[O-])NC(=O)c1cc(Cl)ccc1[N+](=O)[O-] (configuration not stated) | inconclusive: 22.5%
9 | C#CCOCCOCCOCCNc1nc(N2CCN(C(=O)CCCCCCCCCCNC(=O)Cn3cc(C[C@@H](C)O)nn3)CC2)nc(N2CCN(C(=O)CCCCCCCCCCNC(=O)[C@H](CCCN=C(N)N)n3cc(C[C@@H](C)CC)nn3)CC2)n1 | inactive: -330%
10 | CCOc1cc(/C=C2/NC(=S)NC2=O)ccc1OCc1ccc([N+](=O)[O-])cc1 | inactive: 1.66%
11 | CCc1ccc(NC(=O)CSc2nc(NS(=O)(=O)c3ccccc3)cc(=O)[nH]2)cc1 | inactive: -0.681%
12 | Cc1cc(C(=O)N/N=C/c2cccc(OC(=O)c3cccc(Br)c3)c2)n[nH]1 | active: 29.5%
13 | COc1ccc(N(CC(=O)Nc2cccc(C)c2)S(=O)(=O)c2ccc(C)cc2)cc1OC | inactive: 13.9%
14 | COc1ccc(NC(=O)N(C)C[C@H]2Oc3c(NC(=O)c4nc5ccccc5s4)cccc3C(=O)N([C@@H](C)CO)C[C@H]2C)cc1 | inactive: -12.4%
15 | COc1ccc(/C=C2/SC(=O)N(CC(O)Cn3c4ccccc4c4ccccc43)C2=O)cc1 (configuration not stated) | inconclusive: 18.7%
16 | CCNC1CCC(Nc2ccnc3cc(Cl)ccc23)CC1 (configuration not stated) | active: 20%
17 | CC(=O)c1cnc2c(-c3ccc(Cl)cc3)cnn2c1C | inactive: -7.67%
18 | O=C(CNC(=O)c1ccccc1)N/N=C/c1cc(Br)ccc1O | inactive: -7.63%
19 | CC1CCc2c(sc(NC(=O)C3CCCO3)c2C#N)C1 (configuration not stated) | inactive: 2.92%
20 | O=[N+]([O-])c1cc(S(=O)(=O)C(F)(F)F)ccc1Sc1nc2ccccc2[nH]1 | inconclusive: 19.8%
21 | COc1cccc(CNC(=O)COC(=O)/C(C#N)=C/c2ccc(N(C)C)cc2)c1 | inconclusive: 17.9%
22 | O=C(N/N=C/c1cn(-c2cccs2)nc1-c1ccccc1)c1ccccc1Cl | inactive: -5.8%
